Laboratory results from patent US7423058B2, “Inhibitors of hepatitis C virus NS3 protease” (Schering Corporation, priority 2004, dated 2008).

What follows are compounds tested against Recombinant heterodimeric HCV NS3/NS4A protease (strain 1a) (Hepatitis C virus genotype 1a, UniProt P27958) (assay: Spectrophotometric assay for HCV protease inhibitory activity (chromogenic ester substrates)). Details: Table 1: Ketones; read-out: Ki* Range.
Assay type: biochemical

| SMILES | Ki [nM] |
| --- | --- |
| C#CCCC(NC(=O)[C@@H]1[C@@H]2[C@H](CN1C(=O)[C@@H](NC(=O)NC(C(=O)c1ccccc1)C(C)C)C(C)(C)C)C2(C)C)C(=O)C(=O)NCC#C (some centres unmarked) [compound 4176] | 76 to 250 |
| CC(C)[C@H](NC(=O)N[C@H](C(=O)N1C[C@H]2[C@@H]([C@H]1C(=O)NC(CC1CC1)C(=O)C(N)=O)C2(C)C)C(C)(C)C)C(=O)C1CC1 (some centres unmarked) [compound 4016] | < 75 |
| C=CCNC(=O)C(=O)C(CCC)NC(=O)[C@@H]1[C@H]2CC(C)(C)O[C@H]2CN1C(=O)[C@@H](NC(=O)N[C@H](C(=O)c1nccs1)C(C)C)C1CCCCC1 (some centres unmarked) [compound 4208] | > 250 |
| CC(C)[C@H](NC(=O)N[C@H](C(=O)N1C[C@H]2[C@@H]([C@H]1C(=O)NC(CC1CCC1)C(=O)C(N)=O)C2(C)C)C(C)(C)C)C(=O)c1nccs1 (some centres unmarked) [compound 4077] | < 75 |
| CCCC(NC(=O)[C@@H]1[C@@H]2[C@H](CN1C(=O)[C@@H](NC(=O)N[C@H](C(=O)C(C)C)C(C)C)C(C)(C)C)C2(C)C)C(=O)C(=O)NCCC(F)(F)F (some centres unmarked) [compound 4203] | > 250 |
| C=CCNC(=O)C(=O)C(CCC)NC(=O)[C@@H]1[C@@H]2[C@H](CN1C(=O)[C@@H](NC(=O)N[C@H](C(=O)c1nccs1)C(C)C)C(C)(C)C)C2(C)C (some centres unmarked) [compound 4117] | < 75 |
| C=CCNC(=O)C(=O)C(CCC)NC(=O)[C@@H]1[C@H]2CC(C)(C)O[C@H]2CN1C(=O)[C@@H](NC(=O)N[C@H](C(=O)C1CC1)C(C)C)C(C)(C)C (some centres unmarked) [compound 4193] | 76 to 250 |
| CC(C)[C@H](NC(=O)N[C@H](C(=O)N1C[C@H]2[C@@H]([C@H]1C(=O)NC(CC1CC1)C(=O)C(N)=O)C2(C)C)C(C)(C)C)C(=O)c1ccc(N(C)C)cc1 (some centres unmarked) [compound 4029] | < 75 |
| CC(C)[C@H](NC(=O)N[C@H](C(=O)N1C[C@H]2[C@@H]([C@H]1C(=O)NC(CC1CC1)C(=O)C(N)=O)C2(C)C)C(C)(C)C)C(=O)c1ccc(Oc2ccccc2)cc1 (some centres unmarked) [compound 4160] | < 75 |
| C#CCCC(NC(=O)[C@@H]1[C@@H]2[C@H](CN1C(=O)[C@@H](NC(=O)N[C@H](C(=O)C1CC1)C1CCCCC1)C(C)(C)C)C2(C)C)C(=O)C(=O)NCC=C (some centres unmarked) [compound 4032] | < 75 |

Same assay, conditions: Table 2: Oximes; read-out: Ki* Range

| SMILES | Ki [nM] |
| --- | --- |
| CO/N=C(\C1CC1)[C@@H](NC(=O)N[C@H](C(=O)N1C[C@H]2[C@@H]([C@H]1C(=O)NC(CC1CC1)C(=O)C(N)=O)C2(C)C)C(C)(C)C)C(C)C (some centres unmarked) [compound 4293] | 76 to 250 |

Same assay, conditions: Table 3, Esters; read-out: Ki* Range

| SMILES | Ki [nM] |
| --- | --- |
| C=CCOC(=O)[C@@H](NC(=O)N[C@H](C(=O)N1C[C@H]2[C@@H]([C@H]1C(=O)NC(CC1CC1)C(=O)C(N)=O)C2(C)C)C(C)(C)C)C(C)(C)C (some centres unmarked) [compound 4343] | < 75 |
| C=CCNC(=O)C(=O)C(CCC)NC(=O)[C@@H]1[C@@H]2[C@H](CN1C(=O)[C@@H](NC(=O)N[C@H](C(=O)OCC1CC1)C1(C(F)(F)F)CC1)C(C)(C)C)C2(C)C (some centres unmarked) [compound 4443] | < 75 |
| CC(C)(C)[C@H](NC(=O)NC1(C(=O)OCc2ccc(C(F)(F)F)cc2)CCCCC1)C(=O)N1C[C@H]2[C@@H]([C@H]1C(=O)NC(CC1CC1)C(=O)C(N)=O)C2(C)C (some centres unmarked) [compound 4557] | 76 to 250 |
| COc1ccc(COC(=O)[C@@H](NC(=O)N[C@H](C(=O)N2C[C@H]3[C@@H]([C@H]2C(=O)NC(CC2CC2)C(=O)C(N)=O)C3(C)C)C(C)(C)C)C(C)(C)C)cc1 (some centres unmarked) [compound 4348] | < 75 |
| C=CCNC(=O)C(=O)C(CCC)NC(=O)[C@@H]1[C@@H]2[C@H](CN1C(=O)[C@@H](NC(=O)N[C@H](C(=O)OCc1ccccc1)C1CC1)C(C)(C)C)C2(C)C (some centres unmarked) [compound 4522] | < 75 |
| CC(C)(C)[C@H](NC(=O)NC1(C(=O)OCc2ccc(F)cc2)CCCCC1)C(=O)N1C[C@H]2[C@@H]([C@H]1C(=O)NC(CC1CC1)C(=O)C(N)=O)C2(C)C (some centres unmarked) [compound 4465] | < 75 |
| CCCC(NC(=O)[C@@H]1[C@@H]2[C@H](CN1C(=O)[C@@H](NC(=O)N[C@H](C(=O)OC(C1CC1)C1CC1)C(C)C)C(C)(C)C)C2(C)C)C(=O)C(N)=O (some centres unmarked) [compound 4342] | < 75 |
| CC(C)(C)OC(=O)C1(NC(=O)N[C@H](C(=O)N2C[C@H]3[C@@H]([C@H]2C(=O)NC(CC2CCC2)C(=O)C(N)=O)C3(C)C)C(C)(C)C)CCCCC1 (some centres unmarked) [compound 4532] | < 75 |
| CC(C)CC(NC(=O)N[C@H](C(=O)N1C[C@H]2[C@@H]([C@H]1C(=O)NC(CC1CC1)C(=O)C(N)=O)C2(C)C)C(C)(C)C)C(=O)OCc1ccccc1 (some centres unmarked) [compound 4634] | > 250 |
| CC(C)(C)[C@H](NC(=O)N[C@H](C(=O)N1C[C@H]2[C@@H]([C@H]1C(=O)NC(CC1CCC1)C(=O)C(N)=O)C2(C)C)C(C)(C)C)C(=O)OC1CCC1 (some centres unmarked) [compound 4360] | < 75 |
| CC1(C)[C@@H]2[C@@H](C(=O)NC(CC3CC3)C(=O)C(N)=O)N(C(=O)[C@@H](NC(=O)N[C@H](C(=O)OCc3ccccc3)C3CCCC3)C3(C(F)(F)F)CC3)C[C@@H]21 (some centres unmarked) [compound 4631] | > 250 |
| CC(C)(C)[C@H](NC(=O)NC1(C(=O)OCc2ccccc2)CCCCC1)C(=O)N1C[C@H]2[C@@H]([C@H]1C(=O)NC(CC1CCC1)C(=O)C(N)=O)C2(Cl)Cl (some centres unmarked) [compound 4527] | < 75 |
| CNC(=O)C(=O)C(CC1CC1)NC(=O)[C@@H]1[C@@H]2[C@H](CN1C(=O)[C@@H](NC(=O)N[C@H](C(=O)OCc1ccccc1)C(C)(C)C)C(C)(C)C)C2(C)C (some centres unmarked) [compound 4553] | 76 to 250 |
| CCCCC(NC(=O)[C@@H]1[C@@H]2[C@H](CN1C(=O)[C@@H](NC(=O)N[C@H](C(=O)OC(C)(C)C)C(C)(C)C)C1CCCCC1)C2(C)C)C(=O)C(=O)NCC (some centres unmarked) [compound 4485] | < 75 |
| CC(C)(C)[C@H](NC(=O)NC1(C(=O)OCc2ccsc2)CCCCC1)C(=O)N1C[C@H]2[C@@H]([C@H]1C(=O)NC(CC1CCC1)C(=O)C(N)=O)C2(C)C (some centres unmarked) [compound 4440] | < 75 |
| CC1(C)[C@@H]2[C@@H](C(=O)NC(CC3CCC3)C(=O)C(N)=O)N(C(=O)[C@@H](NC(=O)NC3(C(=O)OCc4ccccc4)CCCCC3)C3CCCCC3)C[C@@H]21 (some centres unmarked) [compound 4556] | 76 to 250 |
| CC(C)(C)[C@H](NC(=O)N[C@H](C(=O)N1C2CCC(C2)[C@H]1C(=O)NC(CC1CC1)C(=O)C(N)=O)C1CCCCC1)C(=O)OCc1ccccc1 (some centres unmarked) [compound 4632] | > 250 |
| CNC(=O)C(=O)C(CCC(F)(F)F)NC(=O)[C@@H]1[C@@H]2[C@H](CN1C(=O)[C@@H](NC(=O)N[C@H](C(=O)OC1CCOC1)C(C)(C)C)C(C)(C)C)C2(C)C (some centres unmarked) [compound 4495] | < 75 |
| CC(C)(C)[C@H](NC(=O)N[C@H](C(=O)N1C[C@H]2[C@@H]([C@H]1C(=O)NC(CC1CC1)C(=O)C(N)=O)C2(C)C)C(C)(C)C)C(=O)OCc1ccco1 (some centres unmarked) [compound 4301] | < 75 |
| CC1(C)[C@@H]2[C@@H](C(=O)NC(CC3CC3)C(=O)C(N)=O)N(C(=O)[C@@H](NC(=O)N[C@H](C(=O)OCC3CC3)C3(C(F)(F)F)CC3)C3(C(F)(F)F)CC3)C[C@@H]21 (some centres unmarked) [compound 4643] | > 250 |
| CC(C)[C@H](NC(=O)N[C@H](C(=O)N1C[C@H]2[C@@H]([C@H]1C(=O)NC(CC1CC1)C(=O)C(N)=O)C2(C)C)C(C)(C)C)C(=O)OCc1ccco1 (some centres unmarked) [compound 4319] | < 75 |
| C=CCNC(=O)C(=O)C(CCC)NC(=O)[C@@H]1[C@@H]2[C@H](CN1C(=O)[C@@H](NC(=O)N[C@H](C(=O)OC(C)(C)C)C(C)(C)C)C(C)(C)C)C2(C)C (some centres unmarked) [compound 4438] | < 75 |
| C[C@@H]1CCCC1OC(=O)[C@@H](NC(=O)N[C@H](C(=O)N1C[C@H]2[C@@H]([C@H]1C(=O)NC(CC1CCC1)C(=O)C(N)=O)C2(C)C)C(C)(C)C)C(C)(C)C (some centres unmarked) [compound 4475] | < 75 |
| CC(C)(C)[C@H](NC(=O)N[C@H](C(=O)N1C[C@H]2[C@@H]([C@H]1C(=O)NC(CCC(F)(F)F)C(=O)C(N)=O)C2(C)C)C(C)(C)C)C(=O)OCC1CC1 (some centres unmarked) [compound 4330] | < 75 |
| CCCC(NC(=O)[C@@H]1[C@@H]2[C@H](CN1C(=O)[C@@H](NC(=O)N[C@H](C(=O)OC(C)(C)C)C(C)(C)C)C(C)(C)C)C2(C)C)C(=O)C(N)=O (some centres unmarked) [compound 4398] | < 75 |
| CC(C)(C)[C@H](NC(=O)NC1(C(=O)OCc2ccccc2)CC2CCC1C2)C(=O)N1C[C@H]2[C@@H]([C@H]1C(=O)NC(CC1CC1)C(=O)C(N)=O)C2(C)C (some centres unmarked) [compound 4477] | < 75 |
| CC(C)(C)OC(=O)CCNC(=O)C(=O)[C@H](CC1CC1)NC(=O)[C@@H]1[C@@H]2[C@H](CN1C(=O)[C@@H](NC(=O)N[C@H](C(=O)OCc1ccccc1)C1CCC1)C(C)(C)C)C2(C)C [compound 4548] | 76 to 250 |
| CC(C)[C@H](NC(=O)N[C@H](C(=O)N1C[C@H]2[C@@H]([C@H]1C(=O)NC(CC1CC1)C(=O)C(N)=O)C2(Cl)Cl)C(C)(C)C)C(=O)OC1Cc2ccccc2C1 (some centres unmarked) [compound 4529] | < 75 |

Same assay, conditions: Table 6; read-out: Ki* range

| SMILES | Ki [nM] |
| --- | --- |
| CC1(C)[C@@H]2[C@@H](C(=O)NC(CC3CC3)C(=O)C(N)=O)N(C(=O)[C@@H](NC(=O)NC3(Cc4cccc(OCc5ccccc5)c4)CCCCC3)C3Cc4ccccc4C3)C[C@@H]21 (some centres unmarked) [compound 4983] | 76 to 250 |
| CC1(C)[C@@H]2[C@@H](C(=O)NC(CC3CC3)C(=O)C(N)=O)N(C(=O)[C@@H](NC(=O)NC3(Cc4ccccn4)CCCCC3)C3CCCCC3)C[C@@H]21 (some centres unmarked) [compound 4933] | < 75 |
| CC(C)(C)[C@H](NC(=O)NC1(Cc2nccs2)CCCCC1)C(=O)N1C[C@H]2[C@@H]([C@H]1C(=O)NC(CC1CC1)C(=O)C(N)=O)C2(Cl)Cl (some centres unmarked) [compound 4928] | < 75 |
| CCCC(NC(=O)[C@@H]1[C@@H]2[C@H](CN1C(=O)[C@@H](NC(=O)NC1(Cc3ccccn3)CCCCC1)C(C)(C)C)C2(C)C)C(=O)C(N)=O (some centres unmarked) [compound 4966] | 76 to 250 |

Same assay, conditions: Table 8; read-out: Ki*

| SMILES | Ki [nM] |
| --- | --- |
| CC(C)(C)[C@H](NC(=O)NC1(Cc2cccc(O)c2)CCCCC1)C(=O)N1C[C@H]2[C@@H]([C@H]1C(=O)NC(CC1CC1)C(=O)C(N)=O)C2(C)C (some centres unmarked) | 10 |
| CC(C)[C@H](NC(=O)N[C@H](C(=O)N1C[C@H]2[C@@H]([C@H]1C(=O)NC(CC1CCC1)C(=O)C(N)=O)C2(C)C)C(C)(C)C)C(=O)C1CC1 (some centres unmarked) [drawing 1472] | 15 |
| CC(C)(C)[C@H](NC(=O)N[C@H](C(=O)N1C[C@H]2[C@@H]([C@H]1C(=O)NC(CC1CCC1)C(=O)C(N)=O)C2(C)C)C(C)(C)C)C(=O)NCc1ccccc1 (some centres unmarked) | 40 |
| C=CCNC(=O)C(=O)C(CCC)NC(=O)[C@@H]1[C@@H]2[C@H](CN1C(=O)[C@@H](NC(=O)N[C@H](C(=O)OCc1ccccc1)C1CCCC1)C(C)(C)C)C2(C)C (some centres unmarked) [drawing 1475] | 30 |
